The record followed here is the RNAGym collection of RNA variant scans (doi:10.7554/elife.90254).

First the molecules themselves.
B1: LINE1-mini (parent)
chain: GGCAGAGCUCAACACAGCGUGGCAAAGUGGCUGUGGCUAGACUGCC

Read counts are not given, so values of variants with three or more changes are uncertain.

This series covers variants of B1. Kind of series: self-cleavage, relative activity (ratio to wild type); higher = more cleavage; in vitro, sequencing; the parent is a self-cleaving ribozyme.
For the variant GGCAGAGGUCAACACAGAGUGGCAAAGGGGCUGUGGCUAGACUGCC, the self-cleavage is 0.02. The same measure for GGCAGAGGUGAACACAGCGUAGCAAAGUGGCUGUGGCUAGCCUGCC: 0.02; for GGCAGAGGUCAAUACAGCGUGGCAAAGUGGCUGUGGCUGGACUGCC: 0.04; for GGCAGAGGUCAACACCGCGUGGCAAAGGGGCUGUGGCUUGACUGCC: 0.01. In the case of GGCAGAGGUCAACAAAGCGUGGCAAAGUGGGUGUGGCUCGACAGCC, the self-cleavage is 0.07.

On to GGCAGAGGUCAACACAGCGUGGCAAGGUGGCUGUGGCUAGACUACC, for which the self-cleavage came to 0.05. Then GGCAGAGGUCAACACAGCAUGGCAAUGUGGCGGUGGCUAGACUGCC, with 0.01; and GGCAGAGGUCAACACAGCGUCCCAAACUGGCUGUGGCUAGACUGCC, with 0.03; and GGCAGAGGUCAAUACAGCGUGGCAAAGGUGCUGUGGGUAGACUGCC, with 0.1.

For the variant GGCAGAGGUCAAUACAGCAUGGCAAAGAGGCUGUGGCUAGACUGCC, the self-cleavage was determined as 0.07.

In the case of GGCAGAGGUAAACACAGCGUGGCAAAGUGGCUGUGGCGAGACUGCC, the self-cleavage was 0.01. In the case of GGCAGAGGUCAACAAAGCGUGACAAAGUGGCUAUGGCUAGACUGCC, the self-cleavage worked out at 0.02. Turning to GGCAGAGGUCAACAGAGCGUGCCAAAGUGGCUGUGGCUUGACUGCC, the self-cleavage is 0.01. With GGCAGAGGUCAACACAGCGUGGCAAAGUGGCUGUGGCUAGAGUGUC, the self-cleavage is 0.17. As to GGCAGAGGUAAUCACAGCGAAGCAAAGUGGCUGUGGAUAUACUGCC, the self-cleavage amounted to 0.01. Consider GGCAGAGGUGAACACAGCGUGGCAAAGUGGCUGUGGCUAGUCUGCC, for which the self-cleavage worked out at 0.02. For the variant GGCAGAGGUCAACACAGCGUGGCAAGGGGGCUGUGGCUAGAAUGCC, the self-cleavage turned out to be 0.03.

Regarding GGCAGAGGUCAACACAGCGUGGCACAGUGGCUGUGGCUAGACUGAC, the self-cleavage amounted to 0.03.

In the case of GGCAGAGGUCAACACAGCGUGGCAUAGUGGCUGGGGCUAGACUGCC, the self-cleavage amounted to 0.03. GGCAGAGGUCAACACAGCGUGGCAAGGUGGCUGUGGCUACAAUGCC: the self-cleavage was 0. On to GGCAGAGGUCAAUACAGCGUGGCAACGUGGCUGUAGCUAGACUGCC, for which the self-cleavage was 0.14. Consider GGCAGAGGUCAACACGGCGUGGCAAAGUGGCUGUGGCUAAACUACC, for which the self-cleavage worked out at 0.09. Then GGCAGAGGUAAACACUGCGUGAAAAAGCGGCUGUCGCUAGACUGCC, with 0.01. As to GGCAGAGGUCAACAUAACGUGGCAAUCUGGGUGUUGCUAGACAGCU, the self-cleavage is 0. On to GGCAGAGGUCAACACAGCAUGGCAAAGUGACUGUGGCUAGACUGCC, for which the self-cleavage was 0.09.

Consider GGCAGAGGUCAACACAGCCUGGCAAAGUGGCUGUGCCUAGACUGCC, for which the self-cleavage was determined as 0.05. Consider GGCAGAGGUCAAAAAAGCGUGGCAAAGUGGCUGUGGCUAGAAAGCC, for which the self-cleavage amounted to 0.03. For GGCAGAGGUCAACACAGCGUGGUAAAGUUGCUCUGGCUCGACUGCA, the self-cleavage worked out at 0.01. GGCAGAGGUCAACACAGCGUGGCAAAGUGGCUGUGGCUAGAAUCCC: the self-cleavage was 0.08. Then GGCAGAGGUCAACACAGCGUUGCAAAGUGGCUGUGACUAGACUGCC, with 0.02; and GGCAGAGGUCAACACAGCGUGGCAUAGUGGCUGUGGCUAGUAUGCC, with 0.05. For the variant GGCAGAGGUCAACACGGCGUGGCAAAGUGGCUGUGGCUAGACUACC, the self-cleavage worked out at 0.02.

GGCAGAGGUCAACACGGAGUGGCAAAGUGGCUGUGGCUAGACUGCC: the self-cleavage is 0.04. The same measure for GGCAGAGGUCAACAAAGCGUGGCAAAGUGGCUGCGGCUAGACUUCC: 0.05; for GGCAGAGGUCAAGAGAGCGUGGCAAAGUGGCUGUGGCUAGACUGCC: 0.06; for GGCAGAGGUCAACACAGCGUGGCAAAGUGGCUGUGGGUGGACUGCC: 0.07. For the variant GGCAGAGGUAAACAUAGCGAGGCAAAGUGGCUAUGGCUUGAUUGCC, the self-cleavage was 0.02. In the case of GGCAGAGGUCAACUCAGCGUGGCAAAGUGGCUGUGGGUAGUCUGCC, the self-cleavage was 0.04. The same measure for GGCAGAGGUCAACACAGCGUGGUAAAGUGACUGUGGCUAGACUGGC: 0; for GGCAGAGGUCAACACAACGUGGCAAUGUGGCUGUGGCUAGACUGCG: 0.02; for GGCAGAGGUCAACAUAGCGUGGUAAACUGGCCGUGGCUAGACUGCC: 0.02. For GGCAGAGGUUAACACAGCGUGGCAAAGUUUAUGUGGCUAGACUGCC, the self-cleavage was found to be 0.15.

Take GGCAGAGGUCAACACAGCGUGGCUAAGUGUCUGUGGCUAGACUGCC: the self-cleavage came out at 0.05. Then GGCAGAGGUCAACAUAGCGUGGCAAGGUGGCUGUGGCUAGACUGCC, with 0.03; and GGCAGAGGUUCACACCGCGUGGCUAAGUGUCUGUGGCUAGACUGCC, with 0.01; and GGCAGAGGUCAACACAGCGUGGCAUAGUGGCUGUGGCUCGACUGCC, with 0.11. Regarding GGCAGAGGUCAAGACAGCGUGGCAAAGUGGCUGUGGCAAGACUGCC, the self-cleavage came to 0.02.

For the variant GGCAGAGGUCAACACAUCGUGGGAAAGUGGCUGUGGCUAGACUGCC, the self-cleavage is 0.02. For the variant GGCAGAGGUCAACACAGCGUGGAAAAGUGGCUGUUGCUAGACUACC, the self-cleavage turned out to be 0.52. For the variant GGCAGAGGUCAAUACAGCGAGGAAAAGUGGCUGUGGCAAGACUGCC, the self-cleavage was determined as 0.03.

In the case of GGCAGAGGUCAAAACAGCGUGGCAAGGUAGAUGUGGCUAGACUUCC, the self-cleavage worked out at 0.05. On to GGCAGAGGUCAACACAGCGUGGCACGGUUGCUGUGGCUUGACUGCC, for which the self-cleavage was 0.02.

For the variant GGCAGAGGUCAACACAGCGUGGUAAAUUGGCUCUGGCUAGACUGCC, the self-cleavage was 0.05.

Take GGCAGAGGUCAACACAGGGUGGCAAAGUGGCUGUGGCUACACUGCC: the self-cleavage was 0.02. As for GGCAGAGGUCAACACUGCGUGGCCAAGUGGCUGUGGCUAGACUGCC, the self-cleavage worked out at 0.04. On to GGCAGAGGUCAACGUAGCGGGGCAAAGUGGCUGUGGCUAGACUACC, for which the self-cleavage came out at 0.21.
